# Data taken from article PMC5836133.
# Some of the results follow. At the low end of the ranking the order means little.
# Test system: T1, GST-NbGlk1(82-244)
# T1 sequence: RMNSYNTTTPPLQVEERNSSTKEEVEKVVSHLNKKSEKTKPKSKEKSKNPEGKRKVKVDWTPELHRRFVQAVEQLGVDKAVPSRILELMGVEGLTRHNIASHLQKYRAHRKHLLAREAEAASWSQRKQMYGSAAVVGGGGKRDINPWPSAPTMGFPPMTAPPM
# Assay: protein-binding microarray;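 further: rank-based score ranging −0.5 to +0.5 with E above 0.45 taken as significant binding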
# Details: NbGlk1 is a Golden2-like transcription factor of Nicotiana benthamiana; high values mean tight binding; most listed sequences are background and not binding sites; double strand, one strand shown
row,Sequence,binding signal [E-score]
1,AGAGTGGC,-0.286
2,AAGAAGCT,-0.182
3,CACGCCAA,-0.0798
4,AAAGATTT,0.427
5,ACGGGTTC,-0.257
6,AGCAGGAA,-0.125
7,ACTGTCAA,0.101
8,CAATAGCG,0.0213
9,ATAGCTCG,0.0253
10,ATCAATTC,0.0438
11,AGAGAGCA,-0.169
12,AAGCGCAC,-0.235
13,AAAAAGCA,-0.0897
14,AAACTGGA,0.00977
15,ACTAAGCT,-0.0885
16,AACACTAC,-0.0479
17,CACGATTA,0.202
18,ATAACCCG,0.00934
19,ACTAGCTC,-0.0228
20,CAAAAAAA,0.148
21,ACAAGCGG,-0.116
22,ATAAGAGC,-0.00401
23,AACCTACA,-0.1
24,AACGAGAA,0.122
25,AACCCACG,-0.18

row,Sequence,binding signal [E-score]
1,AGGAGTCC,-0.265
2,AGACGGTA,-0.171
3,ATACTAAC,0.0388
4,AAACACGT,0.0292
5,AAATTGCT,0.145
6,ATACAACA,0.131
7,AGAGGTAT,-0.081
8,ATGTAGAC,-0.0436
9,CAATTGAA,0.0472
10,AACACATT,0.0334
11,AGGATATC,0.469
12,AACTGGAA,0.0488
13,ATCCGAAA,0.249
14,AAGAGGTC,-0.2
15,AAGCTGGA,-0.0621
16,ACTGAGCG,-0.0398
17,ACCGCAGC,-0.0974
18,AGTTGTAG,-0.00706
19,ACCCAGAT,0.247
20,ACGAACCT,-0.103
21,ATGGCAAC,-0.198
22,ACCGCGTC,-0.249
23,AAACGGCA,-0.11
24,AATCGGGA,0.301
25,ACACGACT,-0.16

row,Sequence,binding signal [E-score]
1,ACTTCGAA,0.103
2,ATAGACTG,-0.231
3,AACTAAAT,0.113
4,ATGGAGCA,-0.17
5,ATACTGGC,-0.0649
6,CACCTAGA,0.0734
7,ACGATTCC,0.4
8,AAGCGCTA,-0.226
9,AGACGCTC,-0.182
10,AAATAACA,0.149
11,CACGCTAA,-0.181
12,ACCATCAA,-0.119
13,ATTGCACA,0.275
14,ATGGTATG,-0.0619
15,AGGACGTG,-0.179
16,ACAGTGAA,-0.181
17,AAACACAG,0.0399
18,ATCGTGGG,0.137
19,AAGGTACA,-0.0699
20,ATAGACAG,0.00333
21,AGGTAGCC,-0.283
22,CAGACGCA,-0.036
23,AGAAGCGG,-0.176
24,AACGCTAC,-0.0778
25,AAAGGAAT,0.27

row,Sequence,binding signal [E-score]
1,AGATACTG,0.33
2,AATATGAG,0.214
3,ATATTAGA,0.212
4,AAAGTTGG,-0.0352
5,CACGACAC,-0.0798
6,ACCTGTAT,0.138
7,AGTAGTGG,-0.0593
8,AATACCGC,0.0854
9,AGTAGCGA,0.0444
10,ACAGGGCA,-0.158
11,AATGACGC,-0.162
12,ACAGGACA,-0.104
13,AAACAAAT,0.18
14,AAGCCCAG,-0.297
15,CAAAGGTA,-0.157
16,AAATTTGG,0.147
17,AGGCTATA,-0.142
18,AGTTAGCC,-0.145
19,ATGCTCGC,-0.175
20,ACGTAGCA,-0.0216
21,ACTGCTGC,-0.23
22,AGTAAGAC,-0.0166
23,ACTTATCC,0.135
24,ACCACGGT,-0.116
25,ATGGTCTC,-0.151

row,Sequence,binding signal [E-score]
1,AAGGCCAG,-0.274
2,AATCAAGC,0.22
3,ACTCCGTC,-0.234
4,AAGGGTGG,-0.153
5,AAAGGGAC,-0.168
6,AATGGAAA,0.0668
7,ACGTACGC,-0.21
8,AAAGTAGG,0.0754
9,ACACATTG,-0.0765
10,ACCTGCCT,-0.239
11,AGATTACT,0.429
12,AGGTGGCC,-0.274
13,ATTCGCAA,0.352
14,AGGCTCCG,-0.281
15,AACTGGCG,-0.154
16,AGTCCAGG,-0.235
17,ACTCACCT,-0.0573
18,ATCTACTA,0.341
19,ATGATCAA,-0.00692
20,ATCGCTAA,0.157
21,ACCGTACT,-0.0955
22,AAATGTGC,-0.0665
23,AAGCGAGA,-0.0261
24,ATGTTTAG,0.0551
25,ACTAACCC,-0.303

row,Sequence,binding signal [E-score]
1,ACTGTCTG,-0.072
2,AAGGGCCT,-0.207
3,AATAGCGG,-9.73e-05
4,CAATCGAC,0.0642
5,AAGCACGT,0.0234
6,ATTAGCTA,-0.0867
7,ACTTATAA,-0.0101
8,CAGCGCTA,-0.155
9,ATTCTCCG,0.338
10,ATCGACAT,0.00739
11,ATAGCTGG,-0.149
12,ATATGTAA,0.132
13,AGATAGTG,0.151
14,AGGTATGC,-0.0783
15,ATGCTCAG,-0.0893
16,ACCATTTG,-0.13
17,ATAACCTC,0.000455
18,AGTCGTAG,-0.239
19,ATGGCACA,-0.0513
20,ACAAGTCT,-0.151
21,ATAAAGAG,0.076
22,AAACACGG,-0.146
23,CAGAGAGG,-0.184
24,CAATGCCG,-0.201
25,CACTGCTG,-0.14

row,Sequence,binding signal [E-score]
1,ACCCTCTC,-0.18
2,ATAATGTC,0.174
3,AGAGCCCG,-0.2
4,AGTAGCTA,-0.0883
5,AGATCTAT,0.337
6,ATTAGGGC,-0.102
7,ATAGATCA,0.0439
8,ATGTTCAA,0.00791
9,ACGCATTG,-0.0505
10,ACATCCAT,0.022
11,ATGTATAA,0.174
12,ATGTGGCC,-0.157
13,ACACTACC,-0.0835
14,ACGAGCCC,-0.249
15,ATATCACC,0.277
16,ATTCGCAC,0.297
17,ATCGATGG,0.0277
18,AAAGCTAA,-0.102
19,AGAAAAAA,0.0258
20,CACAGATA,0.28
21,CACGGCCA,-0.244
22,ACAGGATA,0.261
23,ATCTCCTG,0.312
24,ATGTTAGC,-0.015
25,ATTATTTA,0.148

row,Sequence,binding signal [E-score]
1,ACGTCGGA,0.0767
2,ATTGATCC,-0.0281
3,ATACAAGG,-0.0173
4,AAGGCAGT,0.0617
5,AGGCACAT,-0.118
6,AGTGTGAT,0.168
7,AAACAGAC,-0.105
8,AGGGATCC,0.103
9,ATGCTCCA,-0.0539
10,ATTTGTGC,0.0523
11,ATACATGC,0.0881
12,ACGGTGCG,-0.195
13,AACCGAAC,-0.135
14,CAACTGCC,-0.155
15,ACACGTCA,-0.13
16,AGCAACAC,-0.121
17,AGGCAAGC,-0.358
18,AGGTAAGG,-0.0855
19,ATTCTAAA,0.221
20,AGTCGCAC,-0.127
21,ATTGTCTA,0.157
22,AGACGCAC,-0.161
23,ACATTGGT,-0.0909
24,AGACTTAT,-0.0915
25,AATAATGA,0.172

row,Sequence,binding signal [E-score]
1,ATAAAATC,0.409
2,ACTCATTA,0.118
3,CACCGAAG,-0.0468
4,CAATGCTA,-0.0546
5,AAGTGTAC,-0.161
6,ATGGGGGG,-0.312
7,AGCTCGAC,-0.159
8,ACCTACGA,0.03
9,ATTGACAA,0.182
10,CAAGTGAG,0.0179
11,ACGAGGGG,-0.22
12,ATATGAAT,0.209
13,AAGGTTTG,-0.124
14,ACGTGTTA,-0.034
15,ACTTTAAT,0.0735
16,CAAGGAGC,-0.263
17,AATGCGCC,-0.12
18,CACAGCTC,-0.236
19,AGCTGATA,0.154
20,AAGTGGAA,0.0389
21,ACCAGCTG,-0.204
22,ATGATCGG,-0.0584
23,ATCCACGC,0.276
24,CACAGAAC,-0.0851
25,ATAGCAAT,0.321

row,Sequence,binding signal [E-score]
1,ACCCCATG,-0.147
2,ATAGCGTA,0.266
3,CAACCCTA,-0.107
4,ACTACACT,0.0157
5,AATTTGGG,0.141
6,ACTCGGCA,-0.178
7,AATTCATG,0.0557
8,AGACTCCT,-0.287
9,ACTGACAT,-0.0224
10,AATCGCTA,0.224
11,AAAATGTA,-0.0355
12,ACGAATCG,0.283
13,AAGCTTGT,-0.113
14,AGGGATAA,0.0121
15,ACACAAAC,-0.0227
16,AACATCGA,0.127
17,AAGTCTCC,-0.353
18,ATATTAAT,0.279
19,CACAAGAC,-0.14
20,ACATACTC,-0.148
21,AGGCCGTC,-0.238
22,AGGACACA,-0.166
23,AGCCAGAT,0.135
24,AGAGCAAC,-0.179
25,AAGTGCTA,-0.0981

row,Sequence,binding signal [E-score]
1,CAAGAAAG,-0.0952
2,AGAGCAAG,-0.0846
3,CACTGGCG,-0.173
4,ATTCGGCC,0.0107
5,ACCATGGG,-0.263
6,ACCCTGGC,-0.126
7,CAATCACA,0.205
8,AATGGGCT,-0.0624
9,AACTCGCG,-0.0644
10,AATAGGGA,0.0727
11,AGACGTCG,-0.0485
12,AGCTCAGG,-0.172
13,ATATCCTA,0.416
14,AGATAGAC,-0.205
15,ACGCGCGC,0.00708
16,ACCCATGA,-0.14
17,ACCCTAAA,-0.0544
18,CACCCTGA,-0.145
19,ATAATTTG,0.1
20,ACTGTGTC,-0.194
21,AAGCGGAA,-0.0835
22,AATGGACG,-0.181
23,AGAGAGTG,-0.113
24,ATTGACGC,-0.111
25,CACAGGGG,-0.182

row,Sequence,binding signal [E-score]
1,AGGTGACT,-0.184
2,ATTGCCCC,0.205
3,ACCTTTCA,-0.0237
4,ATGCAGGG,-0.0605
5,AATCATCT,0.205
6,ACGAGACC,-0.146
7,ACCATCCC,-0.0883
8,ACCAGTCC,-0.216
9,ACACGTAC,-0.0654
10,AAGTCGGT,-0.138
11,CAGCGGTA,-0.0864
12,ACCCGTGA,-0.162
13,ATGTGTCA,0.0296
14,ATCGGTTC,0.0759
15,ATTATCTC,0.111
16,ACACGACG,-0.176
17,AGGTGAGA,-0.0917
18,ATTGGTCG,0.0891
19,CACCGTTC,-0.121
20,ACGATTTC,0.411
21,AATTTACT,0.126
22,CAATTCCG,0.0442
23,ACCACTAG,-0.153
24,ACTGGCGA,0.0256
25,AGTAATTA,0.221

row,Sequence,binding signal [E-score]
1,AAAGGAGA,-0.11
2,ATTAACGG,-0.0595
3,CACTGCGG,-0.134
4,ACCACTCC,-0.173
5,ATAGAAAG,0.00555
6,AGCAGATC,0.328
7,AGGAAGAA,-0.0899
8,ATTAACGC,-0.115
9,AAAGCGGC,-0.224
10,AGTATGAC,-0.0147
11,ACCTCGAT,0.123
12,AGTGTAAA,0.0865
13,AGCCCATA,0.0017
14,AAGCATAG,-0.0738
15,ACTACCCG,-0.0898
16,AACTATAA,0.0486
17,ATGGTTAC,-0.124
18,ACGCATAC,0.061
19,AATCCCGA,0.358
20,AAATGCGC,0.106
21,ATTTCCTA,0.358
22,AAAGCATA,-0.0316
23,AAAGAGGT,-0.0687
24,AGCACGAG,-0.146
25,ATCATCAC,0.118

row,Sequence,binding signal [E-score]
1,ACATGCCG,-0.102
2,AACAGAAA,0.183
3,AAGCGTAA,0.121
4,AGTACCGA,-0.118
5,AATCAAAC,0.25
6,AAGTTCCA,-0.168
7,AAATAATA,0.227
8,AGTCGTTC,-0.0623
9,AAGGCGGT,-0.159
10,ATAAATGG,-0.077
11,ACGTACAT,-0.0329
12,ATTCTCGC,0.232
13,AAGGAATC,0.396
14,AGGTGAGC,-0.148
15,AGCCGTAA,-0.056
16,ACTTGGCA,-0.244
17,AATCTGCT,0.37
18,ATTTCATA,0.353
19,AAAGCCAT,-0.187
